In the supplement of paper PMC11417369:
The other results are listed elsewhere or left out.

Tested on: PfSIP2 AP2 domain 1 (GST-tagged)
Test: gcPBM binding intensity (ln(normalized median fluorescence intensity)); higher = stronger DNA binding
Procedure, shortened: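 The highest Masliner-normalised natural-log median intensity across replicate spots of either probe orientation is reported as binding intensity. GST-tagged P. falciparum DNA-binding domains expressed in E. coli were applied for 1 h to an Agilent 4 × 180k array of primer-extended double-stranded 36-bp intergenic genomic probes plus negative controls, and bound protein was detected with Alexa488 anti-GST antibody and scanned at 488 nm.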

Sequence | gcPBM binding intensity (ln)
CATATCCTTACGAACTGTACAATATTAAGAATAAAA [XGTACX_site1651] | 7.27
ATTTATTTTTTTATCACACATTTGTGAAATGTGCAT [CACACA_site5869] | 7.01
TTATAGTATTTATAATGTACAAATATATTTTATTTT [XGTACX_site5015] | 6.89
ATATATATATTTATAGTGCATTTATATTAAAATATC [GTGCAC_site9818] | 8.92
TCAAATAGAAAATAAAGTACTTAATTTTTAGGAACA [XGTACX_site1446] | 6.93
TTGAATATTTAAAAACGTACATAAAATTATTTGATT [XGTACX_site5422] | 7.07
ATATTTATATTTTTTTGTACATATATAATTTTATAA [XGTACX_site4151] | 7.09
ATATATATTTATATATGTACATATTAATATATATAT [XGTACX_site1144] | 8.36
AAATTAAAATATATATGTACATATATATATATATAT [XGTACX_site7844] | 9.27
GAGCTTTGGATGAAAGCATGCGATGAATGGATAAAA [TGCATGCA_site786] | 6.94
AACACAAATAAGTATTTGGATTATATTACATTTATA [CACACA_negctrl_site465] | 6.75
TAAATAGGAAAACCTATACACACTTTAAAAAAAATA [CACACA_site1621] | 6.75
TAAATTAAAAAAAAAAACAAAAAAAAAGCAACAAAA [CACACA_negctrl_site1318] | 6.92
ATAAAAATAAATAAATGTACATATATATATATATAT [XGTACX_site1277] | 9.18
ATTTATTTCAATAAACTTCTTTTCTTTAACAATTAC [CACACA_negctrl_site1222] | 6.73
TATAAAAATGTGTATGTACACACTTTATTTTTAATA [CACACA_site2532] | 7.12
TATTTTTCCCTATGCACACACACCGTATATATAATA [CACACA_site4758] | 7.86
AGTATTTCCATATGTACATGCAAAAGGAAAGATATA [TGCATGCA_site850] | 7.26
TGTCCAATTTTTTATCGTACATAATATATAAATAAA [XGTACX_site1705] | 7.51
AAATATAAAAATAGCACACATATATACATATATATA [CACACA_site56] | 7.43
AGAAACGTAAGTTATACACACATGTCAAAAGAAAAA [CACACA_site312] | 6.79
ATCCATCTTTTATATAGTACTTTATAATATATATAT [XGTACX_site8064] | 8.6
CAATGTTAATATAATACACACAATATGTATTTGTCT [CACACA_site1162] | 6.85

Sequence | gcPBM binding intensity (ln)
TTGTTAATATATATATGTACTTATTTATTTATTTAT [XGTACX_site2274] | 7.01
TTTGAATTTTTTAACACACACATGTCTGGATATATA [CACACA_site1645] | 6.92
GAAAAAAAAAAAAAAAGTACATGTCATAAATTGTAT [XGTACX_site1461] | 6.82
TTTTCCTTAACACACGTTTATATAAAAAATTAAAAT [XGTACX_negctrl_site115] | 7.34
AATGAAAAATGTATCGTTAAAGGGTATCTTAAGGAT [XGTACX_negctrl_site222] | 6.84
CCAAAGAAATATAATACACACAAGAATATATTGGAT [CACACA_site6018] | 6.96
AAGTATTACAACCACACACACACCTATATATTATAT [CACACA_site4158] | 7.14
ACTTGTTTTCAATGTAAAATACAATTTTCATTTATT [CACACA_negctrl_site435] | 7.08
AAAAAAAAAAGACACACACACAAATACAAATACATA [CACACA_site6334] | 6.9
TTTTAAACAAAAAATTGTACAATTAGTGTATAATCC [XGTACX_site778] | 7.27
AAAGGAAATTAAAATTGATTACATATATAAAAAAAC [XGTACX_negctrl_site196] | 7.11
AATTTAATATAATGCACACATAAAAAAAAAAAAAAA [CACACA_site123] | 7.42
CTTTATTATAAGATTACACACATGTGTTATAATTTA [CACACA_site3169] | 6.83
TTGACCTTAAGAAGGTTGCACTAATCATTCAAAGTT | 7.99
CCATTTATTATTTGGGGTACATTTAATTAATATTTT [XGTACX_site5940] | 7.43
ATTTAAGGGGTGTATGCACACGACTATTCCGTATGA [CACACA_site4738] | 6.99
AATATTTTAAGGCACACACACAAAAAAAAAAAAAAA [CACACA_site2890] | 7.22
TAATTTAGTATCTTTACATGCGGGCATTATGTCATA [TGCATGCA_site167] | 6.74
ATAGGCACTTTTTGCACACGTATGAATAACAAAATA [CACACA_site5069] | 7.57
TGAAAATTTTAATGAGGAAATAAAATAAATATAATA [GTGCAC_negctrl_site159] | 7
TTTATTAATAGACACACACACACACGCAAAATAAAA [CACACA_site6255] | 7.19
CCAAAGGGGGTATACTGTACATATAGTGGTTATATA [XGTACX_site1515] | 7.48
TGTAAAACTGAAAAGGGTACATATAAATATATATAT [XGTACX_site69] | 8.27

Sequence | gcPBM binding intensity (ln)
ATTTATTTTTATATAACACACAAAGTATAATATAAC [CACACA_site3582] | 6.94
ATATATATATCGATCTGTACATATATTTATAGACAT [XGTACX_site4236] | 9.03
ATATATTTATATTTATGTACATATCTTTATTTACGT [XGTACX_site6800] | 7.14
ATTAGTAAGAATCATTGTACATTATAATATGTGGTA [XGTACX_site1341] | 7.22
TTTTTAAAAAAGTAAAGTACAAAAAAAAGGAATATC [XGTACX_site588] | 7.38
TGCTTCCTTAGGAATGTACACACATATATAATATGT [CACACA_site8048] | 7.06
AAAGAAATACAATGATGTACATTTAAAAAAAATTAA [XGTACX_site4324] | 6.79
ACAAGAAAATATATTTGTACATATATAATTTTATTT [XGTACX_site548] | 6.84
ATTCTTTTTTTTTGGAAATGTATTTTTATGTTTTGT [TGCATGCA_negctrl_site426] | 6.73
ATTTTAGATGAAAAAGCACACAACATATATATATAT [CACACA_site2295] | 9.51
ACGTTGAAGAAATACACATGCATATTCTATATATAT [TGCATGCA_site76] | 7.55
TATATTTTTTAAAAAGCATGCAAAAAATAATGATCA [TGCATGCA_site48] | 6.97
GTATAATATGAACACACACACACACGCAAAAAAAAA [CACACA_site7036] | 7.28
TAATATATATAAACATGTACAAATCAAAAACAAAAG [XGTACX_site4076] | 7.5
TCATTTTATTTTTTCACACACACATATATATATATA [CACACA_site3333] | 9.1
CTCTTATGCTAGGAAGTGCAATAGTATGGGTACCAC | 7.79
TTGCCCATTTCATTAACACACAAATGTTTATATTCT [CACACA_site4569] | 7.22
TTAACTCAAGAGTGTACACATATATATATATATATA [CACACA_site4334] | 9.31
AATACCCATTTTAGTACACACTTAAAAAATTATTTT [CACACA_site5611] | 6.97
ATATAGTATTAATTTGCATGTCATGTATTAGGTCGA [TGCATGCA_site540] | 6.73
TATTCATTTATAAGCTGTACACATTAATTTGAGCTA [XGTACX_site3616] | 6.83
ATTAGGATATATTAAAGTACTAATATAATACATTTT [XGTACX_site7386] | 6.69
CTTTTTTTAATATGCACACATATATTTTATATATTA [CACACA_site2077] | 7.7

Sequence | gcPBM binding intensity (ln)
TGTAAGTTGATATAATGTACATGTTTGATTTTTTTT [XGTACX_site7687] | 6.97
TTTTATATTTTTTGTGGTACATTTAGAGAACCAAAA [XGTACX_site1695] | 7.04
AAAAAGGGTATTATTACACACACGTAAATATTAATA [CACACA_site101] | 6.91
AGATTTATACAAATATGTACACACTAAATATATATT [XGTACX_site864] | 7.21
TAACTAAGGAATAATACACACAGAAATATAGATTTA [CACACA_site6293] | 6.71
TCTATTTTCTTATGAATGCACTAATTTATAAAACGT | 8.41
CAACAAAAATTATTTACACACAAAAGGCAAGGAAAT [CACACA_site1971] | 7.03
TTTATAAACAAATGAACACACAAACATATATATATA [CACACA_site5713] | 8.76
TTTATTTTATCATTTGCACACGCACCCAGACATAAA [CACACA_site4347] | 10.8
CTATTATAATATTTTACACACCATGTAAGATATATA [CACACA_site7492] | 6.9
TTTTTTCATTAGAAAACATGCAAATGTTTTTCACTT [TGCATGCA_site127] | 6.53
AAAGAAATAAGGTGCACACATATACAGATATATATA [CACACA_site4399] | 11.9
ATATATTTGATTTACACACTTACAATGTATATAAAT [CACACA_site2993] | 7.06
CTCTTTTTTTGCAAAAGTACAAATGGGGATATATTT [XGTACX_site5813] | 7.49
TTAAATAAAAAAATAACACACATATAAATATATATG [CACACA_site3175] | 6.79
TTACATATTTTTTAACGTACATAAATATATATGTAT [XGTACX_site8406] | 7.34
TTGTAAAAATTAATACATATATATATATATATATAT [CACACA_negctrl_site6] | 9.55
ACTCAAACCTTTAGAGTGCAAAAAAAAAAAAAAAAA [GTGCAC_site9952] | 9.22
ATAATTATCATAGGATGTACATATTTATTTTGTATA [XGTACX_site7797] | 7.06
ATATGTTAAATTATTCGTACGTAAAAAAAAATGGAT [XGTACX_site3465] | 7.22
